Each structure is given as a SMILES string. Structures can show the parent of a compound that is named as a salt. The list shows a part of the results. Single values are uncertain, as repeats are few or missing.

The test system of assay [1] is Mef2d microexon dual Nano/Firefly luciferase splicing reporter in Neuro-2a cells. In words: B-score of Firefly/Nano luminescence ratio, V1 Mef2d microexon reporter (B-score (plate-normalised)); higher = more Mef2d microexon inclusion. The note with it: 24 h.
Assay [2] shares this test system. In words: B-score of Nano/Firefly luminescence ratio, V2 Mef2d microexon reporter (B-score (plate-normalised)); higher = more Mef2d microexon inclusion. As to conditions: 24 h.
Assay [3] has as its system Asph alternative exon (endogenous). Nature of the assay: delta PSI of alternative exon relative to 0.4% DMSO control (RT-PCR) (percentage points); higher = more exon inclusion. The note with it: concentration: not stated (optimised per compound); Neuro-2a. The procedure: (§1)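 Reads PSI of the Mef2d reporter microexon and of endogenous mouse neural alternative exons. dPSI is relative to the 0.4% DMSO control, single replicate.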

The test system of assay [4] is Trappc9 microexon (endogenous). The description is as above. As to conditions: concentration: not stated (optimised per compound); Neuro-2a. As to the method: as §1
For assay [5], the system named is Zdhhc20 alternative exon (endogenous). Described as above. The note with it: concentration: not stated (optimised per compound); Neuro-2a. The procedure:
as §1
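Throughout, for B-score of Nano/Firefly luminescence ratio, V2 Mef2d microexon reporter: compounds at 4 µM (PKI library 0.5 µM) on Dox-inducible N2A Flp-In cells with PEST-tagged luciferases, 384-well plates, B-score from per-plate median-polish residual over median absolute residual.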
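Throughout, for delta PSI of alternative exon relative to 0.4% DMSO control (RT-PCR): exons read include endogenous Mef2d, Mast2, Ergic3 and Trappc9 microexons plus the longer neural-regulated Zdhhc20, Mgrn1 and Asph cassette exons, alongside the reporter microexon.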

As for `Cc1noc(C)c1C(=O)NNC(=O)c1ccc(Cl)cc1` (4 µM), the figures for the B-score in assay [1] and in assay [2] were 14.1 and 2.01, respectively.
Consider `Oc1cc(-c2ccccc2)nc2ccccc12` (4 µM), for which the B-score was -4.36 in assay [1] and -9.62 in assay [2].
On the same counts, the results for `COc1cccc(C=C(C#N)C(=O)c2ccc(C(C)(C)C)cc2)c1O` (4 µM) are 8.43 and 1.83.
On the same counts, the results for `O=C(O/N=C(\Nc1ccc(OC(F)(F)F)cc1)c1c(Cl)cccc1Cl)c1ccccc1C(F)(F)F` (4 µM) are 5.17 and 5.66.
As to `Cc1nc2ncccn2c1-c1csc(Nc2ccc(N(C)C)cc2)n1` (4 µM), the B-score in assay [1] was -6.07; in assay [2], -12.7.
For the molecule `COc1cc2nc(CN3c4ccccc4CC3C)[nH]c(=O)c2cc1OC` (configuration not stated) (4 µM), the B-score in assay [1] is -4.87; in assay [2], -6.92.
Regarding `Cc1ccc(S(=O)(=O)Nc2ccc3ncccc3c2)cc1` (4 µM), the figures for the B-score in assay [1] and in assay [2] were 4.22 and 5.29, respectively.
On the same counts, the results for `COc1cccc2c1C(=O)c1c(O)c3c(c(O)c1C2=O)C[C@@](O)(C(=O)CO)C[C@@H]3O[C@H]1C[C@H](N)[C@@H](O)[C@H](C)O1` (4 µM) are -16.9 and -20.4.
The like results for `O=S1(=O)CS(=O)(=O)Oc2ccccc2O1` (4 µM) were, in that order, 3.73 and 3.23.
With `Cc1onc(-c2c(Cl)cccc2Cl)c1C(=O)SCC(=O)Nc1ccc(Cl)cc1` (4 µM), the B-score in assay [1] is -4.5; in assay [2], -5.37.
For `COC(=O)Nc1nc2cc(Sc3ccccc3)ccc2[nH]1` [Fenbendazole] (4 µM), the figures for the B-score in assay [1] and in assay [2] were -2.15 and -22.6, respectively.
As to `O=C1/C(=C/c2ccc(O)c(O)c2)SC(=S)N1C1CCCCC1` (4 µM), the B-score was determined as 2.53 in assay [1] and 12 in assay [2].
On to `CS/C(Nc1ccccc1)=C(/C#N)C(=O)c1cc(-c2ccccc2)c(C(F)(F)F)s1` (4 µM), for which the values for the B-score in assay [1] and in assay [2] were 2.54 and 5.29, respectively.
Regarding `Cn1c(=O)n(-c2ccc(C(C)(C)C#N)cc2)c2c3cc(-c4cnc5ccccc5c4)ccc3ncc21` [NVP-BEZ235, BEZ235, BEZ-235, Dactolisib] (0.5 µM), the B-score in assay [1] is -3.91; in assay [2], -5.28.
Consider `O=C(Nc1ccc(-n2nc(C(F)(F)F)cc2-c2cccs2)cc1)c1cccs1` (4 µM), for which the values for the B-score in assay [1] and in assay [2] were 28.3 and 4.21, respectively.
The like results for `NC(=NOC(=O)Nc1cccc(Cl)c1)c1ccc2nonc2c1` (4 µM) were, in that order, 5.91 and 2.86.
On the same counts, the results for `C/C(=C/C(=O)NCc1ccc(F)cc1)NCc1ccc(F)cc1` (4 µM) are 18 and -0.596.
The like results for `CC(C)(C)NC(=S)NN=CC=NNC(=S)NC(C)(C)C` (4 µM) were, in that order, 3.85 and 19.8.
With `N#Cc1c(-c2cccs2)oc(-n2cccc2)c1-c1cc(Br)cs1` (4 µM), the B-score in assay [1] turned out to be 4.52; in assay [2] it was 2.5.
On the same counts, the results for `C=CC[C@@H]1C=C(C)C[C@H](C)C[C@H](OC)[C@H]2O[C@@](O)(C(=O)C(=O)N3CCCC[C@H]3C(=O)O[C@H](/C(C)=C/[C@@H]3CC[C@@H](O)[C@H](OC)C3)[C@H](C)[C@@H](O)CC1=O)[C@H](C)C[C@@H]2OC` (4 µM) are 4.92 and 6.57.
The like results for `O=C(Nc1ccc(Cl)cc1)Oc1ccc(Br)cc1C1SCCS1` (4 µM) were, in that order, 3.17 and 2.52.
On the same counts, the results for `OCCNCCCOc1cccc(Cl)c1Cl` [2,3-DCPE hydrochloride] (4 µM) are 11.3 and 8.08.
Turning to `CS(=O)c1sc(Br)c2c1C(=O)CCC2` (configuration not stated) (4 µM), the results for the B-score in assay [1] and in assay [2] were -1.4 and -3.87, respectively.
For the molecule `CCCCCCCCCC(=O)Nc1nc2c(s1)Cc1ccccc1-2` (4 µM), the B-score in assay [1] was determined as 3.37; in assay [2] it was 3.38.
As to `COc1ccc(C)cc1C(=O)CCC(=O)Nc1nc2ccccc2[nH]1` (4 µM), the B-score in assay [1] was -0.075; in assay [2] it was -8.59.
The like results for `C=CCn1c(C)cc(C(=O)COn2nnc3ccc(Cl)cc32)c1C` (4 µM) were, in that order, -6.49 and -4.88.
On the same counts, the results for `O=c1[nH]c(-c2ccccn2)nc2sc(-c3ccccc3)cc12` (4 µM) are 9.9 and -17.5.
The like results for `Cc1cc(N2CCC(C)CC2)c([N+](=O)[O-])cc1[N+](=O)[O-]` (4 µM) were, in that order, 4.05 and 4.18.
With `Oc1ccccc1/C=N/NC(=S)Nc1cc(C(F)(F)F)ccc1Cl` (4 µM), the figures for the B-score in assay [1] and in assay [2] were -9.16 and -7.27, respectively.
On the same counts, the results for `COc1cccc(OCCCN)c1-c1cc(Nc2cnc(C#N)cn2)n[nH]1` (0.5 µM) are -5.56 and -3.3.
Regarding `CC1=C/C(=N\OS(=O)(=O)c2ccccc2)C(C(C)C)=CC1=O` (4 µM), the figures for the B-score in assay [1] and in assay [2] were -0.863 and -5.28, respectively.
Take `NC(CCS(=O)(=O)c1ccc(Cl)cc1)=NOC(=O)c1ccccc1Cl` (4 µM): the B-score in assay [1] amounted to 3.15; in assay [2] it was 6.32.
On the same counts, the results for `Nc1ncn([C@@H]2O[C@H](CO)[C@@H](O)[C@H]2O)c(=O)n1` [5-azacytidine] (4 µM) are -4.68 and -9.01.
For the molecule `COc1c(Br)cc([N+](=O)[O-])c(OC)c1C(=O)NC(=O)Nc1cc(C(F)(F)F)cc(C(F)(F)F)c1` (4 µM), the figures for the B-score in assay [1] and in assay [2] were -4.72 and -3.48, respectively.
The like results for `COc1cc(CNc2ccc3c(c2)CCN3C(C)=O)cc(OC)c1OC` (4 µM) were, in that order, -8.3 and -10.1.
On the same counts, the results for `CCOC(=O)c1c(C)[nH]c(C(=O)C(C)N(C)Cc2cccc(OC)c2OC)c1C` (configuration not stated) (4 µM) are -4.39 and -2.28.
For `CCOC=NC1=C(C#N)C(c2ccc(Cl)cc2)c2ccc3ccccc3c2O1` (configuration not stated) (4 µM), the B-score was -3.78 in assay [1] and -6.74 in assay [2].
Turning to `N#CC1(C#N)C(c2ccc(Br)s2)C(C(=O)c2ccccc2)N2c3ccccc3C=CC21` (configuration not stated), the “delta PSI of alternative exon” value in assay [3] was -4.87; in assay [4], -2.86; in assay [5] it was -7.98.

(Values after the supplement of paper PMC11283458.)
